Drawing on PubChem BioAssay AID360 (National Center for Advancing Translational Sciences (NCATS), 2006), this text covers Potency for 91 compounds.

Structures are written as SMILES. The campaign covered roughly 48,000 compounds. About 550 (1.1%) were called active. About 4% were inconclusive and are not listed. Cut-off read from the data, not from the text of the source: active = potency below about 15 µM; inconclusive = mostly about 16 µM to 33 µM; inactive = weaker than that. Some of the results follow.
Potency is the fitted concentration of half-maximal effect.

The target of this test is Lysosomal acid glucosylceramidase (Homo sapiens) (UniProt P04062). Description: Glucocerebrosidase.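 Note: the screen sought inhibitors.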 The following applies: purified enzyme, resorufin glucoside fluorescence (screen aimed at inhibitors), 20 min. An excerpt: NCGC Assay Overview: Beta-glucocerebrosidase catalyzes the hydrolysis of beta-glucocerebroside to glucose and ceramide. The inherited deficiency of beta-glucocerebrosidase results in Gaucher disease, which is characterized by a wide variety of symptoms including hepatosplenomegaly, anemia, thrombocytopenia, bony lesions and bone marrow infiltration with characteristic storage cells, known as Gaucher cells. There are also forms of the disorder affecting the central nervous system. Patients with the same genotypes can manifest with diverse clinical presentations and it is believed that improper folding and trafficking of beta-glucocerbrosidase may contribute to the phenotypes observed. Low molecular weight molecules, acting as chaperones, may potentially restore trafficking of misfolded beta-glucocerebrosidase from the endoplasmic reticulum to the lysosomes, thereby enhancing functional lysosomal beta-glucocerebrosidase activity. Using normal beta-glucocerebrosidase, an assay was developed to screen for small molecule inhibitors that could potentially act as molecular chaperones on the mutant forms [developed with NIH investigator Dr. Ellen Sidransky's laboratory]. Two pro-fluorescent substrates were chosen for two screens against a small molecule library. One beta-glucocerebrosidase assay used Resorufin beta-D-Glucopyranoside (Marker Gene Technology Inc.), generating a red fluorescent product. The second assay used Fluorescein di-beta-D-Glucopyranoside, generating a blue fluorescent product. […] The IC50 values of Conduritol B Epoxide, a known glucocerebrosidase inhibitor, were determined to be 87.5 uM and 117 uM, respectively. The use of two difference pro-fluorescent substrates in the screens helped to eliminate false positives. All compounds were screened in a titration series resulting in AC50s (e.g., IC50s or EC50s).
Sequence of UniProt P04062 (P04062 whole entry, looked up): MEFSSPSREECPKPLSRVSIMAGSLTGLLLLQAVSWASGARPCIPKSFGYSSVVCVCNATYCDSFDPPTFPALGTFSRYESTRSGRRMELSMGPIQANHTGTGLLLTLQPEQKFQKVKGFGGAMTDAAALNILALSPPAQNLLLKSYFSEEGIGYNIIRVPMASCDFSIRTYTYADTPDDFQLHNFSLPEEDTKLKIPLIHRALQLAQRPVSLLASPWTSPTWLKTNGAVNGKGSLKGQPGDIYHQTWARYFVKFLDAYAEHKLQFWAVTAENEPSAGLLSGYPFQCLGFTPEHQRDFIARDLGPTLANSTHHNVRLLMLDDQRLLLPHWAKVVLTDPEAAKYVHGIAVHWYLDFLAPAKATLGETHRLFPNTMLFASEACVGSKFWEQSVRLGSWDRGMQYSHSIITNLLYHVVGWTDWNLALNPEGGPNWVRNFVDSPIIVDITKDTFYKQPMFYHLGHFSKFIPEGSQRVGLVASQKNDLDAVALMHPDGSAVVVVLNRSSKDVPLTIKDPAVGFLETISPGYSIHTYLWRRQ
NCGC Assay Protocol Summary: Both enzyme and substrate were diluted in buffer composed of 50mM citric acid/KH2PO4, 10mM sodium taurocholate and 0.01% tween-20 at pH 5.9. The final concentration of the enzyme was 0.2 nM in both assays. The compound library was titrated in 7 to 15 concentrations for the primary screens with a final concentration ranging from 0.6 nM to 50 uM. This particular assay protocol is for the "red" substrate, and it was performed in 1536-well plate format as follows: Red fluorescence substrate assay: 2 uL enzyme 23 nL compound 1 uL substrate (final concentration of 30 uM) Incubate at room temperature (RT) for 20 minutes Read the plate in Viewlux plate reader (Ex=548(7) and Em=600(10)).
Regarding `Cc1c(C(=O)N2CCC3(CC2)OCCO3)oc2ccccc12`, the Potency was inactive: > 76.9 µM. For `O=C(c1sc2ccccc2c1Cl)N1CCC2(CC1)OCCO2` the value was inactive: > 76.9 µM. As for `CCCCCCn1c(=O)c(C(=O)Nc2c(C)n(C)n(-c3ccccc3)c2=O)c(O)c2ccccc21`, the Potency is inactive: > 76.9 µM. On to `c1ccc(C(OCCN2CCNCC2)c2ccccc2)cc1`, for which the Potency is inactive: > 76.9 µM. Then `Cn1c(=O)cc(OCC(=O)N2CCC3(CC2)OCCO3)c2ccccc21`, with inactive: > 76.9 µM. Then `CC(=NCc1ccco1)c1c(O)n(C)c(=O)n(C)c1=O`, with inactive: > 76.9 µM; and `FC(F)(F)/C(=N\P(=S)(N1CCOCC1)N1CCOCC1)N1CCOCC1`, with inactive: > 76.9 µM; and `CC(=NCCCN1CCCCC1)c1c(O)n(Cc2ccccc2)c(=O)[nH]c1=O`, with inactive: > 76.9 µM. `O=P(O)(O)Cc1ccccc1OP(=O)(c1ccccc1)c1ccccc1`: the Potency was inactive: > 76.9 µM. For `Cc1cccn2c(NCC3CCCO3)c(C(C)C)nc12` (stereo unspecified) the value was inactive: > 76.9 µM; for `O=C(Cc1ccccc1)N1CCN(Cc2c[nH]c3ccccc23)CC1`, inactive: > 76.9 µM. For `Cc1ccc(-n2c(O)c(C=NC3CCCCC3N)c(=O)[nH]c2=O)cc1C` (stereo unspecified) the value was inactive: > 76.9 µM; for `Cc1ccc(S(=O)(=O)N2CCCC(C(=O)N3CCC4(CC3)OCCO4)C2)cc1` (stereo unspecified), inactive: > 76.9 µM; for `O=C1CCCC2C3CCCN4CCCC(CN12)C34` (stereo unspecified), inactive: > 76.9 µM. On to `CC(C)CC(NC(=O)C1CCCCC1)C(=O)N1CCC2(CC1)OCCO2` (stereo unspecified), for which the Potency is inactive: > 76.9 µM.

`Cc1cc2c(s1)NC(=O)CN=C2c1cccs1`: the Potency was inactive: > 76.9 µM. Then `CC(C(N)=O)N1CC(c2ccc(Cl)cc2)CC1=O` (stereo unspecified), with inactive: > 76.9 µM; and `CCOc1ccccc1-n1c(O)c(C=NCc2ccc3c(c2)OCO3)c(=O)[nH]c1=O`, with inactive: > 76.9 µM.

As for `CC(=NCc1cccnc1)c1c(O)n(Cc2ccccc2)c(=O)[nH]c1=O`, the Potency is inactive: > 76.9 µM.

As for `COC(=O)c1ccccc1OP1(=O)COc2ccccc2OC1`, the Potency is inactive: > 76.9 µM. For `CC(=O)C1C(=O)NC23CCCCC2C1c1ccccc1O3` (stereo unspecified) the value was inactive: > 76.9 µM; for `CC1=C(C(=O)Nc2ccccc2)SCCO1`, inactive: > 76.9 µM; for `Cc1ccc(N2C(=O)NC(=O)C3(Cc4ccccc4N4CCCC43)C2=O)cc1` (stereo unspecified), inactive: > 76.9 µM. For `CCOC(=O)C1=C(C)N(C)C2(C)CC1c1ccccc1O2` (stereo unspecified) the value was inactive: > 76.9 µM; for `CC(=NC1CCN(Cc2ccccc2)CC1)c1c(O)[nH]c(=O)[nH]c1=O`, inactive: > 76.9 µM; for `O=C(c1ccc2nc(-c3ccco3)c(-c3ccco3)nc2c1)N1CCC2(CC1)OCCO2`, inactive: > 76.9 µM. Then `Cc1oc(-c2ccccc2F)nc1CS(=O)CC(=O)N1CCC2(CC1)OCCO2` (stereo unspecified), with inactive: > 76.9 µM; and `C=CCOC(=O)C1=C(C)OC(N)=C(C(=O)OCC)C12C(=O)N(CC(N)=O)c1ccccc12` (stereo unspecified), with inactive: > 76.9 µM. Take `COc1ccc(CCN(C)Cc2ccncc2)cc1OC`: the Potency is inactive: > 76.9 µM.

Turning to `c1cncc(CNC2=NCCC2)c1`, the Potency is inactive: > 76.9 µM. Consider `Cc1oc2ccc(OC(=O)N(C)C)cc2c1C(=O)OC(C)C`, for which the Potency was inactive: > 76.9 µM.

In the case of `CCOC(=O)C(O)(c1ccc(N(CC)S(=O)(=O)c2ccccc2)cc1)C(F)(F)F` (stereo unspecified), the Potency entry is “inactive”.

For the compound `C=CCn1c(O)c(C(C)=NCCCO)c(=O)[nH]c1=O`, the Potency is inactive: > 76.9 µM. Then `CCOC(=O)C(O)(c1ccc(NC(=O)c2ccco2)c(OC)c1)C(F)(F)F` (stereo unspecified), with inactive: > 76.9 µM. Then `Cc1cccc(C2=NCC(=O)N(CC(=O)NCc3ccco3)c3sc4c(c32)CCCC4)c1`, with inactive: > 76.9 µM; and `O=C(c1cc(-c2cccnc2)nc2ccc(Br)cc12)N1CCC2(CC1)OCCO2`, with inactive: > 76.9 µM. For `Cc1cc(C)c(C2=NOC(O)(C(F)(F)F)C2)c(=O)[nH]1` (stereo unspecified) the value was inactive: > 76.9 µM; for `Cc1ccc(CS(=O)(=O)Cc2ccc(C(=O)N3CCC4(CC3)OCCO4)o2)cc1`, inactive: > 76.9 µM. Regarding `Cc1ccc(CN2C(=O)NC(=O)C3(Cc4c(nc5ccccn5c4=O)N4CCCCCC43)C2=O)cc1` (stereo unspecified), the Potency was inactive: > 76.9 µM. Consider `Nc1nnc(CCN2CCCCC2)s1`, for which the Potency was inactive: > 76.9 µM. Consider `CC(C)=CCC12CN3CCN(CC(C3)C1=O)C2`, for which the Potency is inactive: > 76.9 µM. Then `CCCCN1C(=O)NC(=O)C2(Cc3ccccc3N3CCOCC32)C1=O` (stereo unspecified), with inactive: > 76.9 µM. `CN(C)P1(N(C)C)=Nc2c(c(N)nn2C)C(c2ccccc2)=N1`: the Potency is inactive: > 76.9 µM. Then `CCOC(=O)c1c(C)c(P(=S)(N2CCOCC2)N2CCOCC2)n(C)c1C`, with inactive: > 76.9 µM. Then `CC(=O)c1c(C)n(CCCOC(C)C)c2ccc(O)cc12`, with inactive: > 76.9 µM.

In the case of `CCC1(CC)C(=O)NC(=Nc2cccc(C(F)(F)F)c2)NC1=O`, the Potency was inactive: > 76.9 µM. Then `Cc1nc2ccccc2c(=O)n1-c1cccc(O)c1`, with inactive: > 76.9 µM. For `Cn1cccc1CNCCc1ccccc1F` the value was inactive: > 76.9 µM; for `CCOC(=O)C1=C(N)OC2=C(C(=O)CCC2)C12C(=O)N1c3c(ccc(C)c32)C(C)=CC1(C)C` (stereo unspecified), inactive: > 76.9 µM. For `CCCCn1c(O)c(C(CC)=NCCN2CCCCC2)c(=O)[nH]c1=O`, the Potency was inactive: > 76.9 µM. For `O=c1c2cc(Cl)cc(Cl)c2nc(CN2CCOCC2)n1-c1ccccc1F` the value was inactive: > 76.9 µM. Turning to `CCCCn1c(O)c(C=NCCCn2ccnc2)c(=O)[nH]c1=O`, the Potency is inactive: > 76.9 µM. For `C=CCN1C(=O)C2(C(C(=O)OCC)=C(N)Oc3ccccc32)c2c1c1ccccc1oc2=O` (stereo unspecified) the value was inactive: > 76.9 µM. For `COc1ccc(C(=O)N2CCCC2=O)cc1` the value was inactive: > 76.9 µM; for `CCCCn1c(=O)c(C(=O)Nc2nc3ccccc3[nH]2)c(O)c2ccccc21`, inactive: > 76.9 µM. Then `CCCn1ncc(C(=O)O)c1C`, with inactive: > 76.9 µM. Take `CN(C)C(=O)Nc1cccc(OC(=O)N(C)C)c1`: the Potency was inactive: > 76.9 µM. For `CC(C(=O)N1CCC2(CC1)OCCO2)C1Sc2ccccc2NC1=O` (stereo unspecified) the value was inactive: > 76.9 µM; for `COc1ccc(N2CCN(C(CNC(=O)Oc3ccccc3)c3cccnc3)CC2)cc1` (stereo unspecified), inactive: > 76.9 µM.

On to `Cn1c(O)c(/C=N/c2ccccn2)c(=O)n(C)c1=O`, for which the Potency was inactive: > 76.9 µM. On to `CCN(CC)CCCN=C(C)c1c(O)n(-c2ccc(C)cc2)c(=O)[nH]c1=O`, for which the Potency is inactive: > 76.9 µM. Then `Cc1cnn(C2CCN(C)CC2)c1N`, with inactive: > 76.9 µM; and `COc1ccc(Cn2c(N)c(C(=O)NCc3ccco3)c3nc4ccccc4nc32)cc1`, with inactive: > 76.9 µM; and `CC(C)CCNC(=O)c1c(N)n(CC2CCCO2)c2nc3ccccc3nc12` (stereo unspecified), with inactive: > 76.9 µM. For `Clc1ccc2c(N3CCNCC3)ccnc2c1` the value was inactive: > 76.9 µM; for `Cc1ccc2c(c1)C(c1ccccc1)NCC(=O)N2` (stereo unspecified), inactive: > 76.9 µM; for `CCOC(=O)C1=C(C)OC(N)=C(C(=O)OCC)C12C(=O)Nc1ccc(Br)cc12` (stereo unspecified), inactive: > 76.9 µM.

`O=c1[nH]c(=O)n(-c2ccc(F)cc2)c(O)c1C=Nc1ccccc1N1CCCC1`: the Potency was inactive: > 76.9 µM.

On to `COc1ccccc1N1CCN(Cc2cccc(OC)c2O)CC1`, for which the Potency is inactive: > 76.9 µM. Then `CC(c1ccccc1)n1cncc1C(=O)N1CCCC1=O` (stereo unspecified), with inactive: > 76.9 µM; and `Nc1c(C(=O)NCCN2CCOCC2)c2nc3ccccc3nc2n1Cc1ccco1`, with inactive: > 76.9 µM; and `CNC(=O)ON(C(=O)NC)C1N(C)C(=S)SC1(C)C` (stereo unspecified), with inactive: > 76.9 µM. Turning to `CC(=NCCCO)c1c(O)n(Cc2ccccc2)c(=O)[nH]c1=O`, the Potency was inactive: > 76.9 µM.

Regarding `COc1ccc(P2(=O)Nc3ccccc3N2)cc1`, the Potency was inactive: > 76.9 µM. For `Cc1ccc2nc(-c3ccncc3)cc(C(=O)N3CCC4(CC3)OCCO4)c2c1` the value was inactive: > 76.9 µM. For `CC(=O)c1c(C)n(CC2CCCO2)c2ccc(O)cc12` (stereo unspecified) the value was inactive: > 76.9 µM.

As to `Cc1ccc(CCN2CC(C(=O)N3CCC4(CC3)OCCO4)CC2=O)cc1` (stereo unspecified), the Potency is inactive: > 76.9 µM. For `CCC(C(=O)N1CCC2(CC1)OCCO2)c1ccccc1` (stereo unspecified) the value was inactive: > 76.9 µM; for `CC(=O)Nc1ccccc1OP1(=O)COc2ccccc2OC1`, inactive: > 76.9 µM. For the compound `CN(CC1COc2ccccc2O1)c1nc(-c2cccnc2)nc2ccccc12` (stereo unspecified), the Potency is inactive: > 76.9 µM. As to `O=C(CCCOc1ccc(Cl)cc1Cl)N1CCC2(CC1)OCCO2`, the Potency was inactive: > 76.9 µM. Then `CN1C(=O)N(C)C(=O)C2(Cc3ccccc3N3CCOCC32)C1=O` (stereo unspecified), with inactive: > 76.9 µM. For `Cc1ccccc1NC1=NCCCS1` the value was inactive: > 76.9 µM; for `Cc1ccc2c(c1)C1CN(C)CCC1N2C(=O)COc1ccc(S(=O)(=O)N2CCOCC2)cc1` (stereo unspecified), inactive: > 76.9 µM; for `Cc1cc(Cl)ccc1OCC(=O)O`, inactive: > 76.9 µM. For `COC(=O)c1cc(C(O)(C(=O)OC)C(F)(F)F)c(/N=C/N(C)C)s1` (stereo unspecified) the value was inactive: > 76.9 µM. As to `CCC(=Nc1ccc(OC)cc1OC)c1c(O)[nH]c(=O)[nH]c1=O`, the Potency is inactive: > 76.9 µM. Consider `O=C(Cn1ncc2c3ccccc3n(Cc3ccc(F)cc3)c2c1=O)N1CCC2(CC1)OCCO2`, for which the Potency is inactive: > 76.9 µM. `CCN(CC)CCCN=Cc1c(O)n(CCc2ccc(OC)c(OC)c2)c(=O)[nH]c1=O`: the Potency was inactive: > 76.9 µM.

With `O=C(O)c1nonc1-c1nonc1C(=O)O`, the Potency was inactive: > 76.9 µM.

With `CCC(=NCc1ccco1)c1c(O)[nH]c(=O)[nH]c1=O`, the Potency was inactive: > 76.9 µM.
